Measurements as given in the supplement of paper PMC8728848.
The other results are listed elsewhere or left out.

What was measured:
Test in all cases: glycan array binding signal (z-score within array); higher = stronger binding
Conditions in all cases: glycan notation: IUPAC condensed, linker removed
[1] = target: Neu5Ac(a2-3)Gal(b1-3)GlcNAc(b1-6)GalNAc
In short: (§1)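 Negative Z-scores can be read as non-binding. The Z-score is calculated within each array and then averaged across arrays of one protein sequence at different concentrations or buffers and across linkers. Arrays, 3228 in all, were curated from the Consortium for Functional Glycomics database and kept only where the protein sequence was available.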

[2] = target: Neu5Ac(a2-3)Gal(b1-3)GlcNAc6S
In short: as §1

[3] = target: Neu5Ac(a2-3)Gal(b1-3)[Fuc(a1-4)]GlcNAc
In short: as §1

[4] = target: Neu5Ac(a2-3)Gal(b1-3)[Fuc(a1-4)]GlcNAc(b1-3)Gal(b1-3)[Fuc(a1-4)]GlcNAc
In short: as §1

[5] = target: Neu5Ac(a2-3)Gal(b1-3)[Fuc(a1-4)]GlcNAc(b1-3)Gal(b1-4)[Fuc(a1-3)]GlcNAc
In short: as §1

[6] = target: Neu5Ac(a2-3)Gal(b1-3)[GlcNAc(b1-6)]GalNAc
In short: as §1

[7] = target: Neu5Ac(a2-3)Gal(b1-3)[Neu5Ac(a2-6)]GalNAc
In short: as §1

[8] = target: Neu5Ac(a2-3)Gal(b1-3)[Neu5Ac(a2-6)]GlcNAc(b1-3)[Fuc(a1-3)[Gal(b1-4)]GlcNAc(b1-6)]Gal(b1-4)Glc
In short: as §1

[9] = target: Neu5Ac(a2-3)Gal(b1-3)]Neu5Ac(a2-3)Gal(b1-4)]GlcNAc
In short: as §1

Neu5Ac(a2-3)Gal(b1-4)Glc = target: Neu5Ac(a2-3)Gal(b1-4)Glc
In short: as §1

[10] = target: Neu5Ac(a2-3)Gal(b1-4)GlcNAc
In short: as §1

[11] = target: Neu5Ac(a2-3)Gal(b1-4)GlcNAc(b1-2)Man
In short: as §1

[12] = target: Neu5Ac(a2-3)Gal(b1-4)GlcNAc(b1-2)Man(a1-3)[GlcNAc(b1-4)][Neu5Ac(a2-3)Gal(b1-4)GlcNAc(b1-2)Man(a1-6)]Man(b1-4)GlcNAc(b1-4)GlcNAc
In short: as §1

[13] = target: Neu5Ac(a2-3)Gal(b1-4)GlcNAc(b1-2)Man(a1-3)[Neu5Ac(a2-3)Gal(b1-4)GlcNAc(b1-2)Man(a1-6)]Man(b1-4)GlcNAc(b1-4)GlcNAc
In short: as §1

[14] = target: Neu5Ac(a2-3)Gal(b1-4)GlcNAc(b1-2)Man(a1-3)[Neu5Ac(a2-3)Gal(b1-4)GlcNAc(b1-2)Man(a1-6)]Man(b1-4)GlcNAc(b1-4)[Fuc(a1-6)]GlcNAc
In short: as §1

[15] = target: Neu5Ac(a2-3)Gal(b1-4)GlcNAc(b1-2)Man(a1-3)[Neu5Ac(a2-6)Gal(b1-4)GlcNAc(b1-2)Man(a1-6)]Man(b1-4)GlcNAc(b1-4)GlcNAc
In short: as §1

[16] = target: Neu5Ac(a2-3)Gal(b1-4)GlcNAc(b1-2)[Neu5Ac(a2-3)Gal(b1-4)GlcNAc(b1-4)]Man(a1-3)[GlcNAc(b1-4)][Neu5Ac(a2-3)Gal(b1-4)GlcNAc(b1-2)[Neu5Ac(a2-3)Gal(b1-4)GlcNAc(b1-6)]Man(a1-6)]Man(b1-4)GlcNAc(b1-4)GlcNAc
In short: as §1

[17] = target: Neu5Ac(a2-3)Gal(b1-4)GlcNAc(b1-2)[Neu5Ac(a2-3)Gal(b1-4)GlcNAc(b1-4)]Man(a1-3)[GlcNAc(b1-4)][Neu5Ac(a2-3)Gal(b1-4)GlcNAc(b1-4)Man(a1-6)]Man(b1-4)GlcNAc(b1-4)GlcNAc
In short: as §1

[18] = target: Neu5Ac(a2-3)Gal(b1-4)GlcNAc(b1-2)[Neu5Ac(a2-3)Gal(b1-4)GlcNAc(b1-6)]Man(a1-6)[Neu5Ac(a2-3)Gal(b1-4)GlcNAc(b1-2)Man(a1-3)][GlcNAc(b1-4)]Man(b1-4)GlcNAc(b1-4)GlcNAc
In short: as §1

[19] = target: Neu5Ac(a2-3)Gal(b1-4)GlcNAc(b1-3)Gal
In short: as §1

[20] = target: Neu5Ac(a2-3)Gal(b1-4)GlcNAc(b1-3)Gal(b1-3)GlcNAc
In short: as §1

[21] = target: Neu5Ac(a2-3)Gal(b1-4)GlcNAc(b1-3)Gal(b1-4)GlcNAc
In short: as §1

[22] = target: Neu5Ac(a2-3)Gal(b1-4)GlcNAc(b1-3)Gal(b1-4)GlcNAc(b1-2)Man(a1-3)[Neu5Ac(a2-3)Gal(b1-4)GlcNAc(b1-3)Gal(b1-4)GlcNAc(b1-2)Man(a1-6)]Man(b1-4)GlcNAc(b1-4)GlcNAc
In short: as §1

[23] = target: Neu5Ac(a2-3)Gal(b1-4)GlcNAc(b1-3)Gal(b1-4)GlcNAc(b1-3)Gal(b1-4)GlcNAc
In short: as §1

[24] = target: Neu5Ac(a2-3)Gal(b1-4)GlcNAc(b1-3)Gal(b1-4)GlcNAc(b1-3)Gal(b1-4)GlcNAc(b1-2)Man(a1-3)[Neu5Ac(a2-3)Gal(b1-4)GlcNAc(b1-3)Gal(b1-4)GlcNAc(b1-3)Gal(b1-4)GlcNAc(b1-2)Man(a1-6)]GalNAc
In short: as §1

[25] = target: Neu5Ac(a2-3)Gal(b1-4)GlcNAc(b1-3)Gal(b1-4)GlcNAc(b1-3)GalNAc
In short: as §1

[26] = target: Neu5Ac(a2-3)Gal(b1-4)GlcNAc(b1-3)Gal(b1-4)GlcNAc(b1-3)[Neu5Ac(a2-3)Gal(b1-4)GlcNAc(b1-3)Gal(b1-4)GlcNAc(b1-6)]GalNAc
In short: as §1

[27] = target: Neu5Ac(a2-3)Gal(b1-4)GlcNAc(b1-3)Gal(b1-4)GlcNAc(b1-6)[Gal(b1-3)]GalNAc
In short: as §1

[28] = target: Neu5Ac(a2-3)Gal(b1-4)GlcNAc(b1-3)Gal(b1-4)[Fuc(a1-3)]GlcNAc
In short: as §1

[29] = target: Neu5Ac(a2-3)Gal(b1-4)GlcNAc(b1-3)GalNAc
In short: as §1

B1: Di AAL2 (Agrocybe aegerita) (protein)
chain: MTSNVITQDLPIPVASRGFADIVGFGLDGVVIGRNAVNLQPFLAVKNFAQNAGGWLTTKHVRLIADTTGTGKGDIVGFGNAGVYVSVNNGKNTFADPPKMVIANFGYDAGGWRVEKHLRYLADIRKIGRADIIGFGEKGVLVSRNNGGLNFGPATLVLKDFGYDAGGWRLDRHLRFLADVTGNGHLDIVGFGDKHVFISRNNGDGTFAPAKSVIDNFCIDAGGWKIGDHPRFVADLTGDGTADIIGCGKAGCWVALNNGGGVFGQVKLVINDFGTDKGWQAAKHPRFIADLTGNGRGDVVGFGNAGVYVALNNGDGTFQSAKLVLKDFGVQQGWTVSKHRRFVVDLTGDGCADIIGFGEKETLVSYNDGKGNFGPVKALTNDFSFSGGKWAPETTVCWMANLDSSRHPAPAPMTSNVITQDLPIPVASRGFADIVGFGLDGVVIGRNAVNLQPFLAVKNFAQNAGGWLTTKHVRLIADTTGTGKGDIVGFGNAGVYVSVNNGKNTFADPPKMVIANFGYDAGGWRVEKHLRYLADIRKIGRADIIGFGEKGVLVSRNNGGLNFGPATLVLKDFGYDAGGWRLDRHLRFLADVTGNGHLDIVGFGDKHVFISRNNGDGTFAPAKSVIDNFCIDAGGWKIGDHPRFVADLTGDGTADIIGCGKAGCWVALNNGGGVFGQVKLVINDFGTDKGWQAAKHPRFIADLTGNGRGDVVGFGNAGVYVALNNGDGTFQSAKLVLKDFGVQQGWTVSKHRRFVVDLTGDGCADIIGFGEKETLVSYNDGKGNFGPVKALTNDFSFSGGKWAPETTVCWMANLDSSRH
- glycan array binding signal (z-score) [1]: -0.299
- glycan array binding signal (z-score) [2]: -0.3
- glycan array binding signal (z-score) [3]: -0.104
- glycan array binding signal (z-score) [4]: -0.117
- glycan array binding signal (z-score) [5]: -0.082
- glycan array binding signal (z-score) [6]: 0.175
- glycan array binding signal (z-score) [7]: -0.105
- glycan array binding signal (z-score) [8]: -0.313
- glycan array binding signal (z-score) [9]: 0.046
- glycan array binding signal (z-score) (Neu5Ac(a2-3)Gal(b1-4)Glc): -0.249
- glycan array binding signal (z-score) [10]: -0.17
- glycan array binding signal (z-score) [11]: -0.284
- glycan array binding signal (z-score) [12]: -0.302
- glycan array binding signal (z-score) [13]: -0.291
- glycan array binding signal (z-score) [14]: 0.317
- glycan array binding signal (z-score) [15]: -0.26
- glycan array binding signal (z-score) [16]: -0.279
- glycan array binding signal (z-score) [17]: -0.257
- glycan array binding signal (z-score) [18]: -0.313
- glycan array binding signal (z-score) [19]: -0.142
- glycan array binding signal (z-score) [20]: -0.262
- glycan array binding signal (z-score) [21]: -0.198
- glycan array binding signal (z-score) [22]: -0.275
- glycan array binding signal (z-score) [23]: 0.016
- glycan array binding signal (z-score) [24]: -0.247
- glycan array binding signal (z-score) [25]: 0.279
- glycan array binding signal (z-score) [26]: -0.269
- glycan array binding signal (z-score) [27]: -0.307
- glycan array binding signal (z-score) [28]: -0.132
- glycan array binding signal (z-score) [29]: -0.241
